Results are given in words; binding and its absence hold for the method and conditions named. Binding seen in cells or lysates may run through a third protein. Some binding calls cover weakened binding; strength is not graded here.
Columns and labels:
[1] = molecular target: T1, endogenous SENP6 (mouse) (mouse (endogenous in primary neurons and brain)) (UniProt Q6P7W0); test: co-IP; endogenous proteins in brain of mice after ischemic stroke, Tat-Nrf2 i.v. 6 h after reperfusion at 5, 10 and 15 mg kg^-1 for 3 consecutive days; the blocked pair
T1 sequence: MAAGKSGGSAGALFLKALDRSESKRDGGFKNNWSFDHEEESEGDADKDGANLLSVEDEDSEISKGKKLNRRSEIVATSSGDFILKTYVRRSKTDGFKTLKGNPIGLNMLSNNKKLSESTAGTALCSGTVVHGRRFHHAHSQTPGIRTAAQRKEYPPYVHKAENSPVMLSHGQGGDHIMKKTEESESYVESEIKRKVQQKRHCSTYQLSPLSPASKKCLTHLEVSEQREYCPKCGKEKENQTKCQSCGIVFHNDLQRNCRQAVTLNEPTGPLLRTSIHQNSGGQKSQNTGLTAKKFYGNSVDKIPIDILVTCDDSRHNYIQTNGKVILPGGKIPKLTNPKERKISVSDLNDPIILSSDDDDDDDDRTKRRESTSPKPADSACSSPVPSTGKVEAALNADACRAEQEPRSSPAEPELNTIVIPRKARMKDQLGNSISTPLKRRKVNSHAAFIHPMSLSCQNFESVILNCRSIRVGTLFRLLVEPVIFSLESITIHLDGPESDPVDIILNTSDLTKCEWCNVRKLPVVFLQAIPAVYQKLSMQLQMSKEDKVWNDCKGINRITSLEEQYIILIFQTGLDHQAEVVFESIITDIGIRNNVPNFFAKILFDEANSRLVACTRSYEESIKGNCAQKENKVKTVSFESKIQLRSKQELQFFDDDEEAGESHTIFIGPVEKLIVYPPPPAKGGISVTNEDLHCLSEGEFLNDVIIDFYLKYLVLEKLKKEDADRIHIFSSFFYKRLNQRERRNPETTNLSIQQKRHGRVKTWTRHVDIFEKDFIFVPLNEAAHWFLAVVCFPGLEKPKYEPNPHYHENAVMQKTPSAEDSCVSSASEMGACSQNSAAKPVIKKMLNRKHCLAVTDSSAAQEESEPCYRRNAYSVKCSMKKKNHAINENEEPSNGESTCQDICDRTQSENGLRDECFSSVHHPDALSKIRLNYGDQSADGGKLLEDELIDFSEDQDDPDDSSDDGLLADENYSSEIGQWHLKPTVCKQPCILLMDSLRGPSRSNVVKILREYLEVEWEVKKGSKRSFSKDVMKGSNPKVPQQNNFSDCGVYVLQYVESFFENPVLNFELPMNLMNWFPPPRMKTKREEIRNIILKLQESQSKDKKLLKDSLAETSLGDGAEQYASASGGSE

[2] = molecular target: T1, endogenous SENP6 (mouse) (mouse (endogenous in primary neurons and brain)); test: co-IP; endogenous proteins in primary mouse neurons, control or OGD 1 h and reperfusion 24 h; whole lysates and cytoplasmic and nuclear fractions; in some experiments neurons infected with adenoviruses expressing SENP6 or SENP6 shRNA for 48 h

B1: endogenous Nrf2 (mouse) (protein, UniProt Q60795 1-597)
chain: MMDLELPPPGLQSQQDMDLIDILWRQDIDLGVSREVFDFSQRQKDYELEKQKKLEKERQEQLQKEQEKAFFAQFQLDEETGEFLPIQPAQHIQTDTSGSASYSQVAHIPKQDALYFEDCMQLLAETFPFVDDHESLALDIPSHAESSVFTAPHQAQSLNSSLEAAMTDLSSIEQDMEQVWQELFSIPELQCLNTENKQLADTTAVPSPEATLTEMDSNYHFYSSISSLEKEVGNCGPHFLHGFEDSFSSILSTDDASQLTSLDSNPTLNTDFGDEFYSAFIAEPSDGGSMPSSAAISQSLSELLDGTIEGCDLSLCKAFNPKHAEGTMEFNDSDSGISLNTSPSRASPEHSVESSIYGDPPPGFSDSEMEELDSAPGSVKQNGPKAQPAHSPGDTVQPLSPAQGHSAPMRESQCENTTKKEVPVSPGHQKAPFTKDKHSSRLEAHLTRDELRAKALHIPFPVEKIINLPVDDFNEMMSKEQFNEAQLALIRDIRRRGKNKVAAQNCRKRKLENIVELEQDLGHLKDEREKLLREKGENDRNLHLLKRRLSTLYLEVFSMLRDEDGKPYSPSEYSLQQTRDGNVFLVPKSKKPDTKKN
Q: B1 was tested. Which binding [1] did it give?
A: Its binding is “binds”.

Q: And the binding [2]?
A: The binding was “binds”.

Reference: publication PMC11831438
